Test results published in the supplement of paper PMC9151546.
Structures can show the parent of a compound that is named as a salt. Repeats are few or missing, and single values can be far off.

Tests used:
[1] = test system: CHO-K1; assay: relative survival (nuclei to bead ratio vs DMSO control) (% of vehicle control); higher = more surviving cells
Procedure: (§1)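 Flow-cytometric in vitro micronucleus assay (Litron MicroFlow) in CHO-K1 cells in 96-well plates, 19 concentrations (4.5-200 µM, n=1 per concentration). Without S9, cells were exposed for 24 h and sampled at 48 h. With Aroclor 1254-induced rat liver S9, cells were exposed for 3-4 h and sampled at 27-28 h. Read-outs are %MN and %hypodiploid nuclei relative to nucleated events, and relative survival as the nuclei-to-bead ratio versus the 1% DMSO vehicle control (x100).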

[2] = test system: CHO-K1; assay: micronucleus frequency (% of nucleated events); higher = more micronuclei (genotoxic)
[3] = test system: CHO-K1; assay: hypodiploid nuclei frequency (% of nucleated events); higher = more hypodiploid events (aneugenic)
Procedure: as §1
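Throughout, for hypodiploid nuclei frequency (% of nucleated events): hypodiploid nuclei gated on a flow cytometer with 488 nm excitation after SYTOX Green staining, cultures at 37 °C, positive controls vinblastine without S9 and cyclophosphamide with S9.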
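Throughout, for micronucleus frequency (% of nucleated events): cells lysed with nuclei stained by SYTOX Green, then micronucleus-gated events counted against nucleated events by flow cytometry with 488 nm excitation.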
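Throughout, for relative survival (nuclei to bead ratio vs DMSO control): Lysed-cell nuclei stained with SYTOX Green and counted against counting beads by flow cytometry at 488 nm excitation, with vinblastine (no S9) and cyclophosphamide (plus S9) as positive controls.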

COc1cc(-c2ccc(N)c(OC)c2)ccc1N [3,3'-Dimethoxybenzidine dihydrochloride]
Settings | hypodiploid nuclei frequency, [3] [%] | micronucleus frequency, [2] [%] | relative survival, [1]
concentration: 4.5 (µM), S9 metabolic activation: with S9, exposure time: 3-4 hours | 0.2 | 1.22 | 58.1
concentration: 4.5 (µM), S9 metabolic activation: without S9, exposure time: 24 hours | 0.86 | 1.38 | 106
concentration: 5.63 (µM), S9 metabolic activation: with S9, exposure time: 3-4 hours | 0.32 | 0.96 | 52.1
concentration: 5.63 (µM), S9 metabolic activation: without S9, exposure time: 24 hours | 1.22 | 1.42 | 124
concentration: 7.04 (µM), S9 metabolic activation: with S9, exposure time: 3-4 hours | 0.16 | 0.9 | 54.1
concentration: 7.04 (µM), S9 metabolic activation: without S9, exposure time: 24 hours | 1.06 | 1.58 | 121
concentration: 8.8 (µM), S9 metabolic activation: with S9, exposure time: 3-4 hours | 0.28 | 1.22 | 55
concentration: 8.8 (µM), S9 metabolic activation: without S9, exposure time: 24 hours | 1.32 | 1.84 | 140
concentration: 11 (µM), S9 metabolic activation: with S9, exposure time: 3-4 hours | 0.22 | 0.98 | 52
concentration: 11 (µM), S9 metabolic activation: without S9, exposure time: 24 hours | 2.42 | 1.8 | 102
concentration: 13.7 (µM), S9 metabolic activation: with S9, exposure time: 3-4 hours | 0.18 | 1.44 | 49.1
concentration: 13.7 (µM), S9 metabolic activation: without S9, exposure time: 24 hours | 2.22 | 1.58 | 96
concentration: 17.2 (µM), S9 metabolic activation: with S9, exposure time: 3-4 hours | 0.12 | 1.2 | 64.5
concentration: 17.2 (µM), S9 metabolic activation: without S9, exposure time: 24 hours | 22.8 | 2.08 | 62.9
concentration: 21.5 (µM), S9 metabolic activation: with S9, exposure time: 3-4 hours | 0.2 | 1.06 | 60.5
concentration: 21.5 (µM), S9 metabolic activation: without S9, exposure time: 24 hours | 8.14 | 2.12 | 62.7
concentration: 26.8 (µM), S9 metabolic activation: with S9, exposure time: 3-4 hours | 0.24 | 1.24 | 75.4
concentration: 26.8 (µM), S9 metabolic activation: without S9, exposure time: 24 hours | 3.84 | 1.46 | 70.2
concentration: 33.6 (µM), S9 metabolic activation: with S9, exposure time: 3-4 hours | 0.1 | 1.24 | 86.5
concentration: 33.6 (µM), S9 metabolic activation: without S9, exposure time: 24 hours | 7.54 | 2.04 | 50.8
concentration: 41.9 (µM), S9 metabolic activation: with S9, exposure time: 3-4 hours | 0.28 | 1.42 | 86.5
concentration: 41.9 (µM), S9 metabolic activation: without S9, exposure time: 24 hours | 23.5 | 2.64 | 41.1
concentration: 52.4 (µM), S9 metabolic activation: with S9, exposure time: 3-4 hours | 0.12 | 1.3 | 69.1
concentration: 52.4 (µM), S9 metabolic activation: without S9, exposure time: 24 hours | – | – | 16.9
concentration: 65.5 (µM), S9 metabolic activation: with S9, exposure time: 3-4 hours | 0.1 | 1.36 | 56.5
concentration: 65.5 (µM), S9 metabolic activation: without S9, exposure time: 24 hours | – | – | 10.1
concentration: 81.9 (µM), S9 metabolic activation: with S9, exposure time: 3-4 hours | 0.4 | 1 | 76.3
concentration: 81.9 (µM), S9 metabolic activation: without S9, exposure time: 24 hours | – | – | 12.4
concentration: 102 (µM), S9 metabolic activation: with S9, exposure time: 3-4 hours | 0.32 | 1.38 | 57.3
concentration: 102 (µM), S9 metabolic activation: without S9, exposure time: 24 hours | – | – | 9.83
concentration: 128 (µM), S9 metabolic activation: with S9, exposure time: 3-4 hours | 0.44 | 1.32 | 66.3
concentration: 128 (µM), S9 metabolic activation: without S9, exposure time: 24 hours | – | – | 6.16
concentration: 160 (µM), S9 metabolic activation: with S9, exposure time: 3-4 hours | 0.22 | 1.18 | 60.7
concentration: 160 (µM), S9 metabolic activation: without S9, exposure time: 24 hours | – | – | 4.99
concentration: 200 (µM), S9 metabolic activation: with S9, exposure time: 3-4 hours | 0.34 | 1.02 | 58.1
concentration: 200 (µM), S9 metabolic activation: without S9, exposure time: 24 hours | – | – | 2.2

COc1cc(-c2ccc(N)c(OC)c2)ccc1N [3,3'-Dimethoxybenzidine]
Settings | hypodiploid nuclei frequency, [3] [%] | micronucleus frequency, [2] [%] | relative survival, [1]
concentration: 4.5 (µM), S9 metabolic activation: with S9, exposure time: 3-4 hours | 0.19 | 0.69 | 73.9
concentration: 4.5 (µM), S9 metabolic activation: without S9, exposure time: 24 hours | 0.44 | 1.34 | 91.7
concentration: 5.63 (µM), S9 metabolic activation: with S9, exposure time: 3-4 hours | 0.18 | 0.76 | 75.7
concentration: 5.63 (µM), S9 metabolic activation: without S9, exposure time: 24 hours | 0.56 | 1.66 | 107
concentration: 7.04 (µM), S9 metabolic activation: with S9, exposure time: 3-4 hours | 0.14 | 1.04 | 91.1
concentration: 7.04 (µM), S9 metabolic activation: without S9, exposure time: 24 hours | 0.5 | 1.52 | 85.4
concentration: 8.8 (µM), S9 metabolic activation: with S9, exposure time: 3-4 hours | 0.2 | 1.08 | 97.9
concentration: 8.8 (µM), S9 metabolic activation: without S9, exposure time: 24 hours | 0.46 | 1.64 | 96.5
concentration: 11 (µM), S9 metabolic activation: with S9, exposure time: 3-4 hours | 0.14 | 0.96 | 105
concentration: 11 (µM), S9 metabolic activation: without S9, exposure time: 24 hours | 0.58 | 2 | 97.2
concentration: 13.7 (µM), S9 metabolic activation: with S9, exposure time: 3-4 hours | 0.16 | 1.26 | 84.4
concentration: 13.7 (µM), S9 metabolic activation: without S9, exposure time: 24 hours | 0.46 | 1.68 | 95.4
concentration: 17.2 (µM), S9 metabolic activation: with S9, exposure time: 3-4 hours | 0.24 | 0.76 | 94.8
concentration: 17.2 (µM), S9 metabolic activation: without S9, exposure time: 24 hours | 0.5 | 2 | 97.2
concentration: 21.5 (µM), S9 metabolic activation: with S9, exposure time: 3-4 hours | 0.12 | 0.9 | 105
concentration: 21.5 (µM), S9 metabolic activation: without S9, exposure time: 24 hours | 0.74 | 1.9 | 87.1
concentration: 26.8 (µM), S9 metabolic activation: with S9, exposure time: 3-4 hours | 0.28 | 0.72 | 84.4
concentration: 26.8 (µM), S9 metabolic activation: without S9, exposure time: 24 hours | 0.46 | 0.98 | 59.5
concentration: 33.6 (µM), S9 metabolic activation: with S9, exposure time: 3-4 hours | 0.16 | 0.5 | 41.8
concentration: 33.6 (µM), S9 metabolic activation: without S9, exposure time: 24 hours | 0.44 | 0.98 | 60.6
concentration: 41.9 (µM), S9 metabolic activation: with S9, exposure time: 3-4 hours | 0.28 | 0.77 | 41.5
concentration: 41.9 (µM), S9 metabolic activation: without S9, exposure time: 24 hours | 0.48 | 1.3 | 56.9
concentration: 52.4 (µM), S9 metabolic activation: with S9, exposure time: 3-4 hours | 0.32 | 0.79 | 43.5
concentration: 52.4 (µM), S9 metabolic activation: without S9, exposure time: 24 hours | 0.7 | 1 | 47.6
concentration: 65.5 (µM), S9 metabolic activation: with S9, exposure time: 3-4 hours | 0.16 | 0.7 | 62.4
concentration: 65.5 (µM), S9 metabolic activation: without S9, exposure time: 24 hours | 0.62 | 1.7 | 53.3
concentration: 81.9 (µM), S9 metabolic activation: with S9, exposure time: 3-4 hours | 0.2 | 1.04 | 47
concentration: 81.9 (µM), S9 metabolic activation: without S9, exposure time: 24 hours | 0.78 | 1.46 | 52.2
concentration: 102 (µM), S9 metabolic activation: with S9, exposure time: 3-4 hours | 0.2 | 1.12 | 62.5
concentration: 102 (µM), S9 metabolic activation: without S9, exposure time: 24 hours | 0.72 | 1.24 | 43.2
concentration: 128 (µM), S9 metabolic activation: with S9, exposure time: 3-4 hours | 0.2 | 1.04 | 52.9
concentration: 128 (µM), S9 metabolic activation: without S9, exposure time: 24 hours | 0.7 | 1.32 | 54.5
concentration: 160 (µM), S9 metabolic activation: with S9, exposure time: 3-4 hours | 0.26 | 1.04 | 64.3
concentration: 160 (µM), S9 metabolic activation: without S9, exposure time: 24 hours | 0.57 | 1.64 | 40.8
concentration: 200 (µM), S9 metabolic activation: with S9, exposure time: 3-4 hours | 0.26 | 1.17 | 61.3
concentration: 200 (µM), S9 metabolic activation: without S9, exposure time: 24 hours | – | – | 37.8
